Measurements from paper PMC12102759 (2025).

B1: CAPRIN1 peptide 364-379 (Caprin-1), 16-mer library wild type / G3BP1 NFT2 (G3BP1 NTF2 domain, […]) (parent complex)
chain 1: AQMQGPYNFIQDSMLD
chain 2: not shown

Variants of: B1
Experiment: proteomic peptide phage display deep mutational scan (ProP-PD DMS): M13 P8 16-mer library selected against immobilised GST-tagged bait for four days (rounds), NGS of the eluted pools per day and pseudo-replica; bait immobilised on MaxiSorp plates (10 µg), library pre-cleared on GST, 2 h binding at 4 °C, five washes; one round per day, days 1-4; value from days 2 and 3

Row | Variant | screen value
1 | chain 1 I10W | 0.0157 average fractional NGS count over selection days 2 and 3 (reads of this peptide / all reads for the bait, averaged over …
2 | chain 1 I10Y | 0.000332 average fractional NGS count over selection days 2 and 3 (reads of this peptide / all reads for the bait, averaged over …
3 | chain 1 I10Q | 0.00143 average fractional NGS count over selection days 2 and 3 (reads of this peptide / all reads for the bait, averaged over …
4 | chain 1 I10H | 0.000282 average fractional NGS count over selection days 2 and 3 (reads of this peptide / all reads for the bait, averaged over …
5 | chain 1 I10L | 0.000748 average fractional NGS count over selection days 2 and 3 (reads of this peptide / all reads for the bait, averaged over …
6 | chain 1 I10G | 0.000373 average fractional NGS count over selection days 2 and 3 (reads of this peptide / all reads for the bait, averaged over …
7 | chain 1 I10F | 0.00937 average fractional NGS count over selection days 2 and 3 (reads of this peptide / all reads for the bait, averaged over …
8 | chain 1 I10M | 0.00334 average fractional NGS count over selection days 2 and 3 (reads of this peptide / all reads for the bait, averaged over …
9 | chain 1 I10T | 0.00177 average fractional NGS count over selection days 2 and 3 (reads of this peptide / all reads for the bait, averaged over …
10 | chain 1 I10V | 0.000435 average fractional NGS count over selection days 2 and 3 (reads of this peptide / all reads for the bait, averaged over …
11 | chain 1 P6F | 0.000206 average fractional NGS count over selection days 2 and 3 (reads of this peptide / all reads for the bait, averaged over …
12 | chain 1 P6W | 0.00221 average fractional NGS count over selection days 2 and 3 (reads of this peptide / all reads for the bait, averaged over …
13 | chain 1 P6R | 0.00176 average fractional NGS count over selection days 2 and 3 (reads of this peptide / all reads for the bait, averaged over …
14 | chain 1 P6H | 0.000772 average fractional NGS count over selection days 2 and 3 (reads of this peptide / all reads for the bait, averaged over …
15 | chain 1 P6Y | 0.000656 average fractional NGS count over selection days 2 and 3 (reads of this peptide / all reads for the bait, averaged over …
16 | chain 1 P6N | 0.00292 average fractional NGS count over selection days 2 and 3 (reads of this peptide / all reads for the bait, averaged over …
17 | chain 1 P6E | 0.000429 average fractional NGS count over selection days 2 and 3 (reads of this peptide / all reads for the bait, averaged over …
18 | chain 1 P6D | 0.00129 average fractional NGS count over selection days 2 and 3 (reads of this peptide / all reads for the bait, averaged over …
19 | chain 1 P6L | 0.0027 average fractional NGS count over selection days 2 and 3 (reads of this peptide / all reads for the bait, averaged over …
20 | chain 1 P6A | 0.00823 average fractional NGS count over selection days 2 and 3 (reads of this peptide / all reads for the bait, averaged over …
21 | chain 1 P6G | 0.000611 average fractional NGS count over selection days 2 and 3 (reads of this peptide / all reads for the bait, averaged over …
22 | chain 1 P6S | 0.000844 average fractional NGS count over selection days 2 and 3 (reads of this peptide / all reads for the bait, averaged over …
23 | chain 1 P6V | 0.000629 average fractional NGS count over selection days 2 and 3 (reads of this peptide / all reads for the bait, averaged over …
24 | chain 1 P6T | 0.00679 average fractional NGS count over selection days 2 and 3 (reads of this peptide / all reads for the bait, averaged over …
25 | chain 1 Y7F | 0.00144 average fractional NGS count over selection days 2 and 3 (reads of this peptide / all reads for the bait, averaged over …

Row | Variant | screen value
26 | chain 1 Y7W | 0.00146 average fractional NGS count over selection days 2 and 3 (reads of this peptide / all reads for the bait, averaged over …
27 | chain 1 Y7P | 0.000114 average fractional NGS count over selection days 2 and 3 (reads of this peptide / all reads for the bait, averaged over …
28 | chain 1 Y7I | 0.000511 average fractional NGS count over selection days 2 and 3 (reads of this peptide / all reads for the bait, averaged over …
29 | chain 1 F9Q | 0.000249 average fractional NGS count over selection days 2 and 3 (reads of this peptide / all reads for the bait, averaged over …
30 | chain 1 F9D | 0.000882 average fractional NGS count over selection days 2 and 3 (reads of this peptide / all reads for the bait, averaged over …
31 | chain 1 L15F | 0.000191 average fractional NGS count over selection days 2 and 3 (reads of this peptide / all reads for the bait, averaged over …
32 | chain 1 L15M | 0.000416 average fractional NGS count over selection days 2 and 3 (reads of this peptide / all reads for the bait, averaged over …
33 | chain 1 L15I | 0.000248 average fractional NGS count over selection days 2 and 3 (reads of this peptide / all reads for the bait, averaged over …
34 | chain 1 L15V | 0.000519 average fractional NGS count over selection days 2 and 3 (reads of this peptide / all reads for the bait, averaged over …
35 | chain 1 Q4A | 0.00278 average fractional NGS count over selection days 2 and 3 (reads of this peptide / all reads for the bait, averaged over …
36 | chain 1 Q4M | 0.0075 average fractional NGS count over selection days 2 and 3 (reads of this peptide / all reads for the bait, averaged over …
37 | chain 1 Q4V | 0.00685 average fractional NGS count over selection days 2 and 3 (reads of this peptide / all reads for the bait, averaged over …
38 | chain 1 Q4I | 0.017 average fractional NGS count over selection days 2 and 3 (reads of this peptide / all reads for the bait, averaged over …
39 | chain 1 Q4G | 0.0027 average fractional NGS count over selection days 2 and 3 (reads of this peptide / all reads for the bait, averaged over …
40 | chain 1 Q4R | 0.000279 average fractional NGS count over selection days 2 and 3 (reads of this peptide / all reads for the bait, averaged over …
41 | chain 1 Q4W | 0.00641 average fractional NGS count over selection days 2 and 3 (reads of this peptide / all reads for the bait, averaged over …
42 | chain 1 Q4L | 0.0014 average fractional NGS count over selection days 2 and 3 (reads of this peptide / all reads for the bait, averaged over …
43 | chain 1 Q4H | 0.025 average fractional NGS count over selection days 2 and 3 (reads of this peptide / all reads for the bait, averaged over …
44 | chain 1 Q4Y | 0.00105 average fractional NGS count over selection days 2 and 3 (reads of this peptide / all reads for the bait, averaged over …
45 | chain 1 Q4F | 0.00554 average fractional NGS count over selection days 2 and 3 (reads of this peptide / all reads for the bait, averaged over …
46 | chain 1 Q4P | 0.00127 average fractional NGS count over selection days 2 and 3 (reads of this peptide / all reads for the bait, averaged over …
47 | chain 1 Q4N | 0.00188 average fractional NGS count over selection days 2 and 3 (reads of this peptide / all reads for the bait, averaged over …
48 | chain 1 M14L | 0.000362 average fractional NGS count over selection days 2 and 3 (reads of this peptide / all reads for the bait, averaged over …
49 | chain 1 M14H | 0.000243 average fractional NGS count over selection days 2 and 3 (reads of this peptide / all reads for the bait, averaged over …
50 | chain 1 M14T | 0.000321 average fractional NGS count over selection days 2 and 3 (reads of this peptide / all reads for the bait, averaged over …

Row | Variant | screen value
51 | chain 1 M14A | 0.00158 average fractional NGS count over selection days 2 and 3 (reads of this peptide / all reads for the bait, averaged over …
52 | chain 1 M14Q | 0.0024 average fractional NGS count over selection days 2 and 3 (reads of this peptide / all reads for the bait, averaged over …
53 | chain 1 M14R | 0.000201 average fractional NGS count over selection days 2 and 3 (reads of this peptide / all reads for the bait, averaged over …
54 | chain 1 M14W | 0.00243 average fractional NGS count over selection days 2 and 3 (reads of this peptide / all reads for the bait, averaged over …
55 | chain 1 M14N | 0.000389 average fractional NGS count over selection days 2 and 3 (reads of this peptide / all reads for the bait, averaged over …
56 | chain 1 M14D | 0.000927 average fractional NGS count over selection days 2 and 3 (reads of this peptide / all reads for the bait, averaged over …
57 | chain 1 M14F | 0.00517 average fractional NGS count over selection days 2 and 3 (reads of this peptide / all reads for the bait, averaged over …
58 | chain 1 M14E | 0.000345 average fractional NGS count over selection days 2 and 3 (reads of this peptide / all reads for the bait, averaged over …
59 | chain 1 M14V | 0.000202 average fractional NGS count over selection days 2 and 3 (reads of this peptide / all reads for the bait, averaged over …
60 | chain 1 D12R | 0.000239 average fractional NGS count over selection days 2 and 3 (reads of this peptide / all reads for the bait, averaged over …
61 | chain 1 D12A | 0.00629 average fractional NGS count over selection days 2 and 3 (reads of this peptide / all reads for the bait, averaged over …
62 | chain 1 D12T | 0.000399 average fractional NGS count over selection days 2 and 3 (reads of this peptide / all reads for the bait, averaged over …
63 | chain 1 D12L | 0.000557 average fractional NGS count over selection days 2 and 3 (reads of this peptide / all reads for the bait, averaged over …
64 | chain 1 D12E | 0.00279 average fractional NGS count over selection days 2 and 3 (reads of this peptide / all reads for the bait, averaged over …
65 | chain 1 D12V | 0.000345 average fractional NGS count over selection days 2 and 3 (reads of this peptide / all reads for the bait, averaged over …
66 | chain 1 D12P | 0.00335 average fractional NGS count over selection days 2 and 3 (reads of this peptide / all reads for the bait, averaged over …
67 | chain 1 D12Y | 0.000244 average fractional NGS count over selection days 2 and 3 (reads of this peptide / all reads for the bait, averaged over …
68 | chain 1 D12N | 0.00209 average fractional NGS count over selection days 2 and 3 (reads of this peptide / all reads for the bait, averaged over …
69 | chain 1 D12F | 0.000325 average fractional NGS count over selection days 2 and 3 (reads of this peptide / all reads for the bait, averaged over …
70 | chain 1 D12K | 0.000211 average fractional NGS count over selection days 2 and 3 (reads of this peptide / all reads for the bait, averaged over …
71 | chain 1 D12S | 0.00438 average fractional NGS count over selection days 2 and 3 (reads of this peptide / all reads for the bait, averaged over …
72 | chain 1 D12M | 0.000821 average fractional NGS count over selection days 2 and 3 (reads of this peptide / all reads for the bait, averaged over …
73 | chain 1 G5A | 0.000425 average fractional NGS count over selection days 2 and 3 (reads of this peptide / all reads for the bait, averaged over …
74 | chain 1 G5H | 0.000938 average fractional NGS count over selection days 2 and 3 (reads of this peptide / all reads for the bait, averaged over …
75 | chain 1 G5P | 0.00327 average fractional NGS count over selection days 2 and 3 (reads of this peptide / all reads for the bait, averaged over …
